# Data published in PubChem BioAssay (Tox21).
# The source holds several records for some structures; these can differ, active in one and inactive in another. Calls of active or inactive are those of the source. Where a call stands in place of a potency, no number is given. Unless noted, calls come from the whole dose curve; as a rule, active = well fitted curve in the direction sought with a large enough effect in the repeat runs; inconclusive = weak or mixed curves; inactive = no such curve, though single readings can be large; an effect the other way counts as inactive or inconclusive.
# Tests used:
# [1] = qHTS assay for identifying genotoxic compounds that show differential cytotoxicity against isogenic chicken DT40 cell lines with known DNA damage response pathways - wild type cell line (AID 743012); conditions: DT40 wild type chicken cells viability, CellTiter-Glo, 40 h; activity change, negative = cytotoxicity: at 68.4 µM (top of the series) unless noted; note: nearly all actives have a fitted effect of over 60% in size; note: potency is the fitted concentration of half-maximal effect
# Method in brief: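 Using parental DT40 (300 cells/well), compounds delivered in DMSO incubate 40 h at 37 C/5% CO2. CellTiter-Glo reagent then stands 30 min at room temperature, and luminescence gives cell viability.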
# [2] = qHTS assay for identifying genotoxic compounds that show differential cytotoxicity against isogenic chicken DT40 cell lines with known DNA damage response pathways - Rev3 mutant cell line (AID 743014); conditions: chicken DT40 Rev3-/- viability, CellTiter-Glo, 40 h; activity, negative = cytotoxicity: at 68.4 µM (top of the series) unless noted; note: nearly all actives have a fitted effect of over 55% in size; note: potency is the fitted concentration of half-maximal effect
# [3] = target: Androgen receptor (Homo sapiens) (UniProt P10275); assay: qHTS assay to identify small molecule agonists of the androgen receptor (AR) signaling pathway (AID 743036; active = well fitted activation curve with a large enough effect in the signal ratio in the repeat runs, with a control signal flat, not every such curve was filed as active; inconclusive = weak or mixed curves, or effect the other way; inactive = no such curve, though single readings can be large or run the other way; the % refers to the signal ratio; note: potency is the fitted concentration of half-maximal effect); conditions: HEK293 AR-UAS-bla GripTite, beta-lactamase FRET ratio, 16 h; activation: at 62.4 µM (top of the series) unless noted
# Sequence of UniProt P10275 (P10275 whole entry, looked up): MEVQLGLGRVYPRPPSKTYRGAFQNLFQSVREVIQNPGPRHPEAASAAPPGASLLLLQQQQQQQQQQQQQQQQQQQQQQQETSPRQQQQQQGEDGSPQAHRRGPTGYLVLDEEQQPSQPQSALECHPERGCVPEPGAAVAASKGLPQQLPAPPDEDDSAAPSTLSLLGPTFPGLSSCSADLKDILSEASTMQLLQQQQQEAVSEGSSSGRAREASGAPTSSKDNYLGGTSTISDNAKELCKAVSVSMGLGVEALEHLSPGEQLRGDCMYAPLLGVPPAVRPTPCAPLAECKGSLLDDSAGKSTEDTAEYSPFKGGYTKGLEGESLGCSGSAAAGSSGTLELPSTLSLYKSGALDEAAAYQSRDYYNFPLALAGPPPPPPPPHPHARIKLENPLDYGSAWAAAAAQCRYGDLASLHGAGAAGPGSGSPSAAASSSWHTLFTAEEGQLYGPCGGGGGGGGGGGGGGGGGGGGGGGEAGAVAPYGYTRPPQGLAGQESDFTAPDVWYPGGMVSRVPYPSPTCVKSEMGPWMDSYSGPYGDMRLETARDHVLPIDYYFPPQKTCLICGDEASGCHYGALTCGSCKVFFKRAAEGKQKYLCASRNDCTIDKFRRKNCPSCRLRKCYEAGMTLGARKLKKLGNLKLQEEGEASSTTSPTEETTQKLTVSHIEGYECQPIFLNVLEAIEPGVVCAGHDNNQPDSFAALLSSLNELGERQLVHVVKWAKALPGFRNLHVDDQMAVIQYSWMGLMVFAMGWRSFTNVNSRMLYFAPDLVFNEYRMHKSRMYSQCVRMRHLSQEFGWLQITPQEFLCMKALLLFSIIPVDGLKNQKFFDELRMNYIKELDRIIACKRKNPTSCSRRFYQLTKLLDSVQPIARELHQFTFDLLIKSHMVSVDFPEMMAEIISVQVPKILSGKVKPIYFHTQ
# Method in brief: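 Reporter line: GeneBLAzer AR-UAS-bla-GripTite (HEK293). Steps: plate cells, 4 h rest, add compounds, 16 h at 37C, add LiveBLAzer B/G substrate, 2 h at RT, read fluorescence.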
# [4] = target: Androgen receptor (Homo sapiens) (UniProt P10275); assay: qHTS assay to identify small molecule antagonists of the androgen receptor (AR) signaling pathway using the MDA cell line (AID 743042; note: nearly all actives have a fitted effect of over 55% in size)
# Method in brief: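 Antagonist mode: compounds plus R1881 agonist added to MDA-kb2 AR-luc cells, incubated 16 h at 37C. Luciferase reporter luminescence quantified, with multiplexed CellTiter-Fluor readout for cell viability.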
# [5] = qHTS assay to identify small molecule antagonists of the thyroid receptor (TR) signaling pathway - cell viability counter screen (AID 743064); conditions: GH3.TRE-Luc viability, CellTiter-Fluor, 24 h; activity change, negative = cytotoxic: at 70.3 µM (top of the series) unless noted; note: nearly all actives have a fitted effect of over 50% in size; note: potency is the fitted concentration of half-maximal effect
# Method in brief: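 Plate GH3.TRE-Luc cells; incubate 4 h at 37 °C; add compound, then T3 to 1 nM final; incubate 23.5 h; add CellTiter-Fluor; incubate 30 min at 37 °C, 5% CO2; read fluorescence.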
# [6] = qHTS assay to identify small molecule antagonists of the androgen receptor (AR) signaling pathway - cell viability counter screen (AID 743033; note: potency is the fitted concentration of half-maximal effect; nearly all actives have a fitted effect of over 45% in size); conditions: AR-bla HEK293 viability, CellTiter-Glo luminescence, 16 h; activity change, negative = cytotoxicity: at 58.5 µM (top of the series)
# [7] = qHTS assay to identify small molecule antagonists of the thyroid receptor (TR) signaling pathway (AID 743065); note: nearly all actives have a fitted effect of over 55% in size; note: potency is the fitted concentration of half-maximal effect
# Method in brief: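 Antagonism measured as loss of luciferase signal in GH3 cells stably carrying a TRE-luciferase reporter, co-treated with compound and T3 (1 nM final) for 23.5 h at 37 C. Viability was read in the same well by CellTiter-Fluor.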
# [8] = target: Estrogen receptor (Homo sapiens) (UniProt P03372); assay: qHTS assay to identify small molecule antagonists of the estrogen receptor alpha (ER-alpha) signaling pathway (AID 743069; active = well fitted curve in the direction sought with a large enough effect in the signal ratio in the repeat runs, not every such curve was filed as active; inconclusive = weak or mixed curves, or effect the other way; inactive = no such curve, though single readings can be large or run the other way; the % refers to the signal ratio; note: potency is the fitted concentration of half-maximal effect); conditions: HEK293 ER-alpha-UAS-bla, beta-lactamase ratio, antagonist mode; activity, negative = inhibition: at 69.4 µM (top of the series) unless noted
# Sequence of UniProt P03372 (P03372 whole entry, looked up): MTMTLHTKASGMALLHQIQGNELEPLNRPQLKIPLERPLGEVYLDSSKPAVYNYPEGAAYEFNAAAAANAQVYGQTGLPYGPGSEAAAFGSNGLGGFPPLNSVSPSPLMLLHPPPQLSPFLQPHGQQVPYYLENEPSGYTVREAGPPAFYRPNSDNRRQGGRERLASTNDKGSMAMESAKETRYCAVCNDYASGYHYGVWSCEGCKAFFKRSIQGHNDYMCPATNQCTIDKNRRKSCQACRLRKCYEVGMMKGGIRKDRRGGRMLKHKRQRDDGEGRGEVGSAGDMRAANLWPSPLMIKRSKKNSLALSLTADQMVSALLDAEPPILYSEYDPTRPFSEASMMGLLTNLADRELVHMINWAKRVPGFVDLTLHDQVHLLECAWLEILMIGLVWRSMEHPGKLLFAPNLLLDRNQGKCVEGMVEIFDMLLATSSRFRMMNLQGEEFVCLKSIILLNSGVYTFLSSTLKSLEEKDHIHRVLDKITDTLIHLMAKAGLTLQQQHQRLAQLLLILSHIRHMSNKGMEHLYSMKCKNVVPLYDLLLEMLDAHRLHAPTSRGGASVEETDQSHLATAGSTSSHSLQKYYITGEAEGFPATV
# Method in brief: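 Compound effects are measured against 17beta-estradiol stimulation in HEK293 cells with a UAS-controlled beta-lactamase reporter for ER-alpha. Exposure lasts 18 hr at 37C; LiveBLAzer B/G FRET substrate follows for 2 hr at room temperature.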
# [9] = qHTS assay to identify small molecule antagonists of the estrogen receptor alpha (ER-alpha) signaling pathway - cell viability counter screen (AID 743074; calls by dose curve;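 note: HEK293 cells carrying ER-alpha-UAS-bla reporter stimulated with 17beta-estradiol; nearly all actives have a fitted effect of over 45% in size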)
# [10] = target: Estrogen receptor (Homo sapiens) (UniProt P03372); assay: qHTS assay to identify small molecule agonists of the estrogen receptor alpha (ER-alpha) signaling pathway using the BG1 cell line (AID 743079); conditions: BG1Luc4E2 cells, ERE-luciferase agonist, 22 h; activation: at 70.3 µM (top of the series) unless noted; note: nearly all actives have a fitted effect of over 20% in size; note: potency is the fitted concentration of half-maximal effect
# [11] = qHTS assay to identify aromatase inhibitors - cell viability counter screen (AID 743084); conditions: MCF-7 aro ERE viability, CellTiter-Fluor, 24 h; activity change, negative = cytotoxicity: at 70.3 µM (top of the series);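 note: cells stimulated with testosterone during compound exposure; nearly all actives have a fitted effect of over 55% in size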; note: potency is the fitted concentration of half-maximal effect
# [12] = target: Androgen receptor (Homo sapiens) (UniProt P10275); assay: qHTS assay to identify small molecule antagonists of the androgen receptor (AR) signaling pathway (AID 743035; active = well fitted inhibition curve with a large enough effect in the signal ratio in the repeat runs, not every such curve was filed as active; inconclusive = weak or mixed curves, or effect the other way; inactive = no such curve, though single readings can be large or run the other way; the % refers to the signal ratio; note: potency is the fitted concentration of half-maximal effect); conditions: HEK293 AR-UAS-bla, R1881-stimulated, beta-lactamase FRET, 16 h; activity change, negative = inhibition: at 58.5 µM (top of the series) unless noted
# Method in brief: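 Using qHTS, AR-UAS-bla GripTite HEK293 cells received compound, then R1881, and were cultured 16 h at 37C/5% CO2 before a 2 h room-temperature LiveBLAzer B/G FRET substrate step and fluorescence measurement.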
# [13] = qHTS assay to identify small molecule antagonists of the androgen receptor (AR) signaling pathway using the MDA cell line - cell viability counter screen (AID 743041; note: nearly all actives have a fitted effect of over 45% in size); conditions: MDA-kb2 viability, CellTiter-Fluor, 16 h, cells co-treated with R1881 androgen agonist; viability change, negative = cytotoxic: at 70.3 µM (top of the series) unless noted
# Method in brief: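 R1881-driven MDA-kb2 AR-luc cells, 3,000/well, were dosed with library compounds for 16 h; cell health came from CellTiter-Fluor fluorescence in the reporter wells.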
# [14] = qHTS assay to identify small molecule antagonists of the estrogen receptor alpha (ER-alpha) signaling pathway using the BG1 cell line (AID 743080; calls by dose curve;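 note: BG1 cells stimulated with 17beta-estradiol alongside compound; nearly all actives have a fitted effect of over 25% in size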; note: potency is the fitted concentration of half-maximal effect); conditions: BG1Luc4E2 ERE-luciferase antagonist mode, luminescence; activity change, negative = inhibition: at 70.3 µM (top of the series) unless noted
# Method in brief: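 Endogenous full-length ER-alpha in BG1-Luc-4E2 cells drives a stably integrated 4×ERE luciferase gene; compounds were tested against 17beta-estradiol over 21.5 h, with luminescence and multiplexed viability fluorescence recorded.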
# [15] = qHTS assay for identifying genotoxic compounds that show differential cytotoxicity against isogenic chicken DT40 cell lines with known DNA damage response pathways - Rad54/Ku70 mutant cell line (AID 743015); conditions: DT40 Rad54/Ku70 mutant viability, CellTiter-Glo, 40 h; activity change, negative = cytotoxicity: at 66.8 µM (top of the series); note: potency is the fitted concentration of half-maximal effect; nearly all actives have a fitted effect of over 60% in size
# [16] = target: Estrogen receptor (Homo sapiens) (UniProt P03372); assay: qHTS assay to identify small molecule agonists of the estrogen receptor alpha (ER-alpha) signaling pathway (AID 743075; calls by dose curve)
# [17] = test system: thyroid hormone receptor (rat, GH3 cells); assay: qHTS assay to identify small molecule agonists of the thyroid receptor (TR) signaling pathway (AID 743066; calls by dose curve); conditions: GH3.TRE-Luc cells, TR agonist luciferase, 24 h; activation: at 83.9 µM (top of the series) unless noted
# [18] = target: Androgen receptor (Homo sapiens) (UniProt P10275); assay: qHTS assay to identify small molecule agonists of the androgen receptor (AR) signaling pathway using the MDA cell line (AID 743040; note: nearly all actives have a fitted effect of over 20% in size); conditions: MDA-kb2 AR-luc cells, MMTV luciferase, 16 h; activity change: at 70.3 µM (top of the series), hits give high values unless noted
# Method in brief: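 After a 5 h incubation at 37C and 0% CO2, MDA-kb2 reporter cells were dosed with compounds in DMSO and kept 16 h under the same conditions. Luciferase activity was then read as luminescence with ONE-Glo.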
# [19] = qHTS assay to identify small molecule antagonists of the estrogen receptor alpha (ER-alpha) signaling pathway using the BG1 cell line - cell viability counter screen (AID 743081);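 note: compound given together with 17beta-estradiol as the ER stimulus; potency is the fitted concentration of half-maximal effect; nearly all actives have a fitted effect of over 45% in size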
# Tags give direction and shape of the fitted curve or compound fluorescence and quenching.
structure (smiles),measurement,setting,value
CC(C)OC(=O)c1cc2c(OCC(O)CNC(C)(C)C)cccc2[nH]1 (stereo not drawn),Potency,[1],active: 23.7 µM
same,Potency,[2],"inconclusive [cytotoxic, single point]"
same,Potency,[3],"inconclusive [fluorescent, partial curve, poor fit]"
same,Potency,[4],inactive
same,Potency,[5],active: 13.3 µM
CCOC(=O)CS,Potency,[1],"inconclusive [cytotoxic, single point]"
same,Potency,[2],"inconclusive [cytotoxic, single point]"
same,Potency,[6],"inconclusive [cytotoxic, partial curve]"
same,Potency,[7],"inconclusive [inhibitor, single point]"
N#Cc1cc2ccccc2c2ccccc12,Potency,[1],"inconclusive [rising, full curve, poor fit]"
same,Potency,[2],"inconclusive [cytotoxic, partial curve, poor fit]"
same,Potency,[6],"inconclusive [cytotoxic, partial curve, poor fit]"
same,Potency,[5],"inconclusive [rising, single point]"
same,Potency,[8],"inconclusive [activator, full curve, poor fit]"
same,Potency,[9],inactive
same,Potency,[10],inactive
same,Potency,[11],inactive
CC(=O)OC[C@H]1O[C@@H](n2ncc(=O)[nH]c2=O)[C@H](OC(C)=O)[C@@H]1OC(C)=O,Potency,[1],"inconclusive [cytotoxic, full curve]"
same,Potency,[2],"inconclusive [cytotoxic, full curve]"
same,Potency,[6],"inconclusive [cytotoxic, partial curve, poor fit]"
same,Potency,[12],active: 5.35 µM
same,activation,[3],inconclusive: -20.8%
same,Potency,[13],inactive
same,Potency,[5],inactive
same,Potency,[8],active: 2.68 µM [inconclusive]
COC(=O)c1ccccc1O,Potency,[1],inactive
same,Potency,[2],"inconclusive [cytotoxic, single point]"
same,Potency,[6],"inconclusive [cytotoxic, partial curve, poor fit]"
same,Potency,[7],inactive
same,Potency,[9],inactive
same,Potency,[10],active: 23.7 µM
same,Potency,[14],inactive
same,Potency,[11],"inconclusive [cytotoxic, single point]"
O=C1CCc2ccccc2O1,Potency,[1],"inconclusive [cytotoxic, single point]"
same,Potency,[2],"inconclusive [rising, partial curve, poor fit]"
same,Potency,[15],"inconclusive [cytotoxic, single point]"
same,Potency,[8],inactive
COc1cc(N)c(Cl)cc1C(=O)NC1CCN(Cc2ccccc2)CC1,Potency,[1],inconclusive [cytotoxic]
same,Potency,[2],"inconclusive [cytotoxic, partial curve, poor fit]"
same,Potency,[6],"inconclusive [cytotoxic, full curve, poor fit]"
same,Potency,[16],inactive
same,Potency,[14],inactive
CC(=O)c1ccc2ccc3ccccc3c2c1,Potency,[1],"inconclusive [cytotoxic, single point]"
same,Potency,[2],active: 60.8 µM
same,Potency,[15],"inconclusive [cytotoxic, single point]"
same,Potency,[17],inactive
same,Potency,[10],active: 8.58 µM
same,Potency,[14],"inconclusive [rising, single point]"
CCc1oc2ccccc2c1C(=O)c1cc(Br)c(O)c(Br)c1,Potency,[1],"inconclusive [cytotoxic, single point]"
same,"activity, negative = cytotoxicity",[2],inconclusive: -62.1% [cytotoxic]
same,Potency,[12],"inconclusive [rising, partial curve, poor fit]"
same,Potency,[3],"inconclusive [rising, partial curve]"
same,Potency,[18],inactive
same,Potency,[5],"inconclusive [cytotoxic, single point]"
same,Potency,[8],active: 10.7 µM [inconclusive]
same,Potency,[10],inactive
CNC(=O)C(c1ccccc1)c1ccccc1,Potency,[1],active: 61.1 µM
same,Potency,[2],"inconclusive [cytotoxic, partial curve]"
same,Potency,[15],"inconclusive [cytotoxic, single point]"
same,Potency,[11],"inconclusive [rising, partial curve, poor fit]"
CN1C(C(=O)Nc2ccccn2)=C(O)c2sccc2S1(=O)=O,Potency,[1],inactive
same,Potency,[2],"inconclusive [cytotoxic, single point]"
same,Potency,[6],inconclusive [cytotoxic]
same,Potency,[19],"inconclusive [cytotoxic, partial curve, poor fit]"
Cc1cnc(C)c(C)n1,Potency,[1],inactive
same,Potency,[2],"inconclusive [cytotoxic, partial curve]"
same,Potency,[15],"inconclusive [cytotoxic, single point]"
same,Potency,[9],inactive
